Holding throughout (test): co-IP; HEK293 cells transiently transfected with PLCβ1 or PLCβ2 and tagged PKD1/2/3; HA-PKD1, FLAG-PKD2 and Myc-PKD3 precipitated from lysates with their respective affinity gels; Western blot for PLCβ1/2; the paper calls these data preliminary
Background: In western blotting, separated proteins are transferred to a membrane and probed.

Chains of the proteins cited; added tags and fusions are not shown.
UniProt Q00722: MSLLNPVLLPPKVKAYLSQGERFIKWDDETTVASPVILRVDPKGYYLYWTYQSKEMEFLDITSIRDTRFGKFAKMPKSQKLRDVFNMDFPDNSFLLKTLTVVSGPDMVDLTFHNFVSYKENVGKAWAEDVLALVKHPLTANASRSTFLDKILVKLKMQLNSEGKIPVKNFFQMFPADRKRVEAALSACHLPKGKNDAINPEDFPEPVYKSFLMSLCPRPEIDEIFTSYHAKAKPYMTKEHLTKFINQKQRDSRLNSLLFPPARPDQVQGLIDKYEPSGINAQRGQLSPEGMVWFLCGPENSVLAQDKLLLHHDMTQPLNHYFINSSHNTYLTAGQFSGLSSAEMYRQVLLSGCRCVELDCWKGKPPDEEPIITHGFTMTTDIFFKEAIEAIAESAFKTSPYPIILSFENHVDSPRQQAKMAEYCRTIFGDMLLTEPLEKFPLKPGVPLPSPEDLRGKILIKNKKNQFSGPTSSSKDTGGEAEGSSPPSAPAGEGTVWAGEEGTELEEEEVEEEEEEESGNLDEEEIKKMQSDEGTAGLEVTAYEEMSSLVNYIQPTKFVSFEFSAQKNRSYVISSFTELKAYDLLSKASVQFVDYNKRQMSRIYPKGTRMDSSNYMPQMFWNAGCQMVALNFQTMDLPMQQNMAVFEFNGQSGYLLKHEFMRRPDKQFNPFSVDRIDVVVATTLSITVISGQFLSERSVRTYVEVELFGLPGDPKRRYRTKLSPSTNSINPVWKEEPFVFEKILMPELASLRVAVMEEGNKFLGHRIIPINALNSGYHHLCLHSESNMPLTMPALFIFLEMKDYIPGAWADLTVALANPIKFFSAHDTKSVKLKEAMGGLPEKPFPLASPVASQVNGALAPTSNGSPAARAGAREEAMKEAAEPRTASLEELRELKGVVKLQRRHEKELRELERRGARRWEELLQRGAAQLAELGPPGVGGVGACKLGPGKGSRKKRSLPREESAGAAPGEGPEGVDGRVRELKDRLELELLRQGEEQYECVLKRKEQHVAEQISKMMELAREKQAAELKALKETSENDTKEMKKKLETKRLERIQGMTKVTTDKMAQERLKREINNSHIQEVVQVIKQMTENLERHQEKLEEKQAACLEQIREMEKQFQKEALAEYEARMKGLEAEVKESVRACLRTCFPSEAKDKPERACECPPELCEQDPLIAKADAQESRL

One experiment concerns the target T1, FLAG-PKD2 (UniProt Q9BZL6).
T1 sequence: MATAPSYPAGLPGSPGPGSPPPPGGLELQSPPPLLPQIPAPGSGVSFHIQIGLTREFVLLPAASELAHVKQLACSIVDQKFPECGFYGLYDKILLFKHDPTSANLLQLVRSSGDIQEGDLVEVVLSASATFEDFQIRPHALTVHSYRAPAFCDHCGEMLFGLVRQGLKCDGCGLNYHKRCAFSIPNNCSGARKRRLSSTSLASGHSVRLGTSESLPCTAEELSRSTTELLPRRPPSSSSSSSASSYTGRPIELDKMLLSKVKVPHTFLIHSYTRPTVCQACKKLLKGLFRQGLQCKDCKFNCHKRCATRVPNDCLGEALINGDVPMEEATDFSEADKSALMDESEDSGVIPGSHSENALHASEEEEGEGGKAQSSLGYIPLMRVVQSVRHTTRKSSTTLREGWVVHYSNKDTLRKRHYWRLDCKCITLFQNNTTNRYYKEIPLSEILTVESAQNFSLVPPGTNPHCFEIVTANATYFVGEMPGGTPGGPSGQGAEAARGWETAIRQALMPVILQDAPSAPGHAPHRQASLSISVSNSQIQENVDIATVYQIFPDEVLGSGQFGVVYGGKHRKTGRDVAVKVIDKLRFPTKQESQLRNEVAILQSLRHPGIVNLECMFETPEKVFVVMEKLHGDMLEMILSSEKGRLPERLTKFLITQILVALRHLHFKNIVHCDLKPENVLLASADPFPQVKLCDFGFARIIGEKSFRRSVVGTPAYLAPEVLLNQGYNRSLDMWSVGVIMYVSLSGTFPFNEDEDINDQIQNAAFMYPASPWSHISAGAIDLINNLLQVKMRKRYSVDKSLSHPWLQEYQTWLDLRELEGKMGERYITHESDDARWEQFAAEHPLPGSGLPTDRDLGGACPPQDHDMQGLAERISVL

Another experiment has as its target T2, HA-PKD1 (UniProt Q15139).
T2 sequence: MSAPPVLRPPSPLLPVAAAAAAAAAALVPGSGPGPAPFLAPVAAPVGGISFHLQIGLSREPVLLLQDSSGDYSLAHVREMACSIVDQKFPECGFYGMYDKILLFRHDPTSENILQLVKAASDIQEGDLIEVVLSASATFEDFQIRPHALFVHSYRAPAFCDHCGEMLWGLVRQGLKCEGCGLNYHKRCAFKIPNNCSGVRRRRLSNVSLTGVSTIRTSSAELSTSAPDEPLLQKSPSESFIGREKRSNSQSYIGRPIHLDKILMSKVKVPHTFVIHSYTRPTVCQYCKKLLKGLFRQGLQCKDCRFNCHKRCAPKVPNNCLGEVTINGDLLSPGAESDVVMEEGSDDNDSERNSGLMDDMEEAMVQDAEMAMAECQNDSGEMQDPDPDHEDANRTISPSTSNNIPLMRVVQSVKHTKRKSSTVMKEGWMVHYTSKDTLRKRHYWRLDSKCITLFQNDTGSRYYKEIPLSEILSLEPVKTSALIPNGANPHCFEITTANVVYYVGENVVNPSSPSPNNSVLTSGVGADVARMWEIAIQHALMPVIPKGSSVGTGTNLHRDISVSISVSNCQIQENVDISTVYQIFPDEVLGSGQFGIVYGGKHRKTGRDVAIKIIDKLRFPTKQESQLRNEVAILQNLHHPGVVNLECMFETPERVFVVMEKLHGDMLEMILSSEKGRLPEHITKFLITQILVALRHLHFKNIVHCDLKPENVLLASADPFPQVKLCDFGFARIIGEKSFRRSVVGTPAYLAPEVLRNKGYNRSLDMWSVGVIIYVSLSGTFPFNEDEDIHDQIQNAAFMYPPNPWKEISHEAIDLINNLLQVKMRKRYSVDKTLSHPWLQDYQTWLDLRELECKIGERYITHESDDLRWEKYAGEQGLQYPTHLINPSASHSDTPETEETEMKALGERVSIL

The next experiment addresses T3, Myc-PKD3 (UniProt O94806).
T3 sequence: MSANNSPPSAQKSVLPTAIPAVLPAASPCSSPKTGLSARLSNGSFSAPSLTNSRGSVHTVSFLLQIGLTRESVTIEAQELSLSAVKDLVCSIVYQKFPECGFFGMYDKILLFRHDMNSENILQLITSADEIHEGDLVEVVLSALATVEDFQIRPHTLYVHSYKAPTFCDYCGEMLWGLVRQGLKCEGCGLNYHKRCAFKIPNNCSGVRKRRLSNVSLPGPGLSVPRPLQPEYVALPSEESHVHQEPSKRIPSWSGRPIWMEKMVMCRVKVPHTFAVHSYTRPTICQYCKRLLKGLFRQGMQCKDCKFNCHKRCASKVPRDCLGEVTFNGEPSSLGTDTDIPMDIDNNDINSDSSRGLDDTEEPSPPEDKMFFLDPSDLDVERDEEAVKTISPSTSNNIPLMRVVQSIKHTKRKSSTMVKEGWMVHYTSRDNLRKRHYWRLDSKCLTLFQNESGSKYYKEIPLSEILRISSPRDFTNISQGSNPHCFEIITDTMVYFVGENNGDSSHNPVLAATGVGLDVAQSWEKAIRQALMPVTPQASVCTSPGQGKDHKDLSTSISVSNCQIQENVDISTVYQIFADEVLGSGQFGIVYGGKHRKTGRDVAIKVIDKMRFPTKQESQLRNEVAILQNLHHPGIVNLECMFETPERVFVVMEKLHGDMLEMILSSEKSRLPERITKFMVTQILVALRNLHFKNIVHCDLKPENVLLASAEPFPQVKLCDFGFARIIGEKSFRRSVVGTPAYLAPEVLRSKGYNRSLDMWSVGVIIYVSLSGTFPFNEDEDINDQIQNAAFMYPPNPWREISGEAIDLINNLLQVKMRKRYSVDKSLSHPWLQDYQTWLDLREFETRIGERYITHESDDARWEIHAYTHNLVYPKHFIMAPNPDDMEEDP

Results are given in words; binding and its absence hold for the method and conditions named. In cells and extracts the contact can be indirect. Some binding calls cover weakened binding; strength is not graded here. Where a sequence is shown, tags or fusion partners need not be part of it.

For “Phospholipase Cβ2 (PLCβ2) (from UniProt Q00722 1-1185) (enzyme)”, the binding result in the experiment with FLAG-PKD2, in the experiment with HA-PKD1 and in the experiment with Myc-PKD3 was “binds” in each case.

B1: Phospholipase Cβ1 (PLCβ1) (enzyme, UniProt Q9NQ66 1-1216)
chain: MAGAQPGVHALQLKPVCVSDSLKKGTKFVKWDDDSTIVTPIILRTDPQGFFFYWTDQNKETELLDLSLVKDARCGRHAKAPKDPKLRELLDVGNIGRLEQRMITVVYGPDLVNISHLNLVAFQEEVAKEWTNEVFSLATNLLAQNMSRDAFLEKAYTKLKLQVTPEGRIPLKNIYRLFSADRKRVETALEACSLPSSRNDSIPQEDFTPEVYRVFLNNLCPRPEIDNIFSEFGAKSKPYLTVDQMMDFINLKQRDPRLNEILYPPLKQEQVQVLIEKYEPNNSLARKGQISVDGFMRYLSGEENGVVSPEKLDLNEDMSQPLSHYFINSSHNTYLTAGQLAGNSSVEMYRQVLLSGCRCVELDCWKGRTAEEEPVITHGFTMTTEISFKEVIEAIAECAFKTSPFPILLSFENHVDSPKQQAKMAEYCRLIFGDALLMEPLEKYPLESGVPLPSPMDLMYKILVKNKKKSHKSSEGSGKKKLSEQASNTYSDSSSMFEPSSPGAGEADTESDDDDDDDDCKKSSMDEGTAGSEAMATEEMSNLVNYIQPVKFESFEISKKRNKSFEMSSFVETKGLEQLTKSPVEFVEYNKMQLSRIYPKGTRVDSSNYMPQLFWNAGCQMVALNFQTMDLAMQINMGMYEYNGKSGYRLKPEFMRRPDKHFDPFTEGIVDGIVANTLSVKIISGQFLSDKKVGTYVEVDMFGLPVDTRRKAFKTKTSQGNAVNPVWEEEPIVFKKVVLPTLACLRIAVYEEGGKFIGHRILPVQAIRPGYHYICLRNERNQPLTLPAVFVYIEVKDYVPDTYADVIEALSNPIRYVNLMEQRAKQLAALTLEDEEEVKKEADPGETPSEAPSEARTTPAENGVNHTTTLTPKPPSQALHSQPAPGSVKAPAKTEDLIQSVLTEVEAQTIEELKQQKSFVKLQKKHYKEMKDLVKRHHKKTTDLIKEHTTKYNEIQNDYLRRRAALEKSAKKDSKKKSEPSSPDHGSSTIEQDLAALDAEMTQKLIDLKDKQQQQLLNLRQEQYYSEKYQKREHIKLLIQKLTDVAEECQNNQLKKLKEICEKEKKELKKKMDKKRQEKITEAKSKDKSQMEEEKTEMIRSYIQEVVQYIKRLEEAQSKRQEKLVEKHKEIRQQILDEKPKLQVELEQEYQDKFKRLPLEILEFVQEAMKGKISEDSNHGSAPLSLSSDPGKVNHKTPSSEELGGDIPGKEFDTPL
For B1, the binding result with FLAG-PKD2, in the experiment with HA-PKD1 and in the experiment with Myc-PKD3 was “no binding” in each case.

(Values after paper PMC3637504.)
